Tests used:
[1] = tested on: HAP1 MTAP-deleted cell line; assay: Viability assay, HAP1 MTAP-deleted cell line; assay type: cell-based; settings: Homo sapiens; viability assay, HAP1 MTAP-deleted cell line; read-out: Hap1 MTAP deleted viability IC50
[2] = tested on: SDMA in HAP1 MTAP-deleted (MTAP-null) cell line (PRMT5 inhibition); assay: SDMA in-cell western assay, HAP1 MTAP-deleted cell line; settings: for IC50 / IC90: Homo sapiens; for IC50: HAP1, read-out: Hap1 MTAP deleted IC50; for IC90: HAP1, read-out: Hap1 MTAP deleted IC90; for Hap1 MTAP intact/deleted ratio: ratio of SDMA IC50 in HAP1 MTAP-intact to HAP1 MTAP-deleted cell line
[3] = tested on: SDMA in HAP1 MTAP-intact cell line (PRMT5 inhibition); assay: SDMA in-cell western assay, HAP1 MTAP-intact cell line; settings: Homo sapiens, HAP1, read-out: Hap1 MTAP intact IC50

| SMILES | IC50 [2] [nM] | IC90 [2] [nM] | IC50 [3] [nM] | IC50 [1] [nM] | Hap1 MTAP intact/deleted ratio [2] |
| --- | --- | --- | --- | --- | --- |
| NC(=O)c1cncc(NC(=O)C(=O)N(Cc2ccc(C(F)(F)F)cn2)[C@@H]2CCc3ccccc32)c1 [Compound 40, (R)—N^1-(5-carbamoylpyridin-3-yl)-N^2-(2,3-dihydro-1H-inden-1-yl)-N^2-((5-(trifluoromethyl)pyridin-2-yl)methyl)oxalamide] | 5 to 50 | > 125 | > 50 | < 100 | B (IC50 ratio greater than or equal to 15 fold but lower than 30 fold) |
| Cc1cc(NC(=O)C(=O)N(Cc2ccc(C(F)(F)F)cn2)C(C)C(C)C)cnc1N (stereo not drawn) [Compound 46, N-(6-amino-5-methyl-3-pyridyl)-N′-(1,2-dimethylpropyl)-N′-[[5-(trifluoromethyl)-2-pyridyl]methyl]oxamide] | 5 to 50 | > 125 | 5 to 50 | < 100 | C (IC50 ratio of less than 15 fold) |
| N#Cc1ccc(CN(Cc2ncccn2)C(=O)C(=O)Nc2cnc(N)c3cn[nH]c23)nc1 [Compound 113, N-(4-amino-1H-pyrazolo[4.3-c]pyridin-7-yl)-N′-[(5-cyano-2-pyridyl)methyl]-N′-(pyrimidin-2-ylmethyl)oxamide] | 5 to 50 | > 125 | > 50 | 100 to 1000 | B (IC50 ratio greater than or equal to 15 fold but lower than 30 fold) |
| Nc1ncc(NC(=O)C(=O)N(Cc2ccc(F)cn2)Cc2ccccc2Cl)c2[nH]ncc12 [Compound 67, N-(4-amino-1H-pyrazolo[4,3-c]pyridin-7-yl)-N′-[(2-chlorophenyl)methyl]-N′-[(5-fluoro-2-pyridyl)methyl]oxamide] | < 5 | < 75 | > 50 | < 100 | B (IC50 ratio greater than or equal to 15 fold but lower than 30 fold) |
| C[C@H](c1ccc(C(F)(F)F)cn1)N(C)C(=O)C(=O)Nc1cnc(N)c2cn[nH]c12 [Compound 147, N-(4-amino-1H-pyrazolo[4,3-c]pyridin-7-yl)-N′-methyl-N′—[(1R)-1-[5-(trifluoromethyl)-2-pyridyl]ethyl]oxamide] | < 5 | < 75 | > 50 | < 100 | A (IC50 ratio greater than or equal to 30 fold) |
| Nc1cccc(CN(Cc2ccccc2)C(=O)C(=O)Nc2cnc(N)c3cn[nH]c23)c1 [Compound 145, N′-[(3-aminophenyl)methyl]-N-(4-amino-1H-pyrazolo[4,3-c]pyridin-7-yl)-N′-benzyl-oxamide] | < 5 | < 75 | > 50 | < 100 | B (IC50 ratio greater than or equal to 15 fold but lower than 30 fold) |
| CN(Cc1ccc(C(F)(F)F)cc1Cl)C(=O)C(=O)Nc1cnc(N)c2cn[nH]c12 [Compound 137] | < 5 | – | > 50 | 100 to 1000 | A (IC50 ratio greater than or equal to 30 fold) |
| Cc1ccccc1CN(C(=O)C(=O)Nc1cnc(N)c2cn[nH]c12)C(C)C [Compound 133, N-(4-amino-1H-pyrazolo[4,3-c]pyridin-7-yl)-N′-isopropyl-N′-(o-tolylmethyl)oxamide] | < 5 | < 75 | > 50 | < 100 | A (IC50 ratio greater than or equal to 30 fold) |

Second part, led by results:

| IC50 [2] [nM] | IC90 [2] [nM] | IC50 [3] [nM] | SMILES | IC50 [1] [nM] | Hap1 MTAP intact/deleted ratio [2] |
| --- | --- | --- | --- | --- | --- |
| < 5 | < 75 | 5 to 50 | Nc1ncc(NC(=O)C(=O)N(Cc2ccc(C(F)(F)F)cn2)C2CCC2)c2[nH]ncc12 [Compound 61, N-(4-Amino-2H-pyrazolo[4,3-c]pyridin-7-yl)-N′-cyclobutyl-N′-[[5-(trifluoromethyl)-2-pyridyl]methyl]oxamide] | < 100 | B (IC50 ratio greater than or equal to 15 fold but lower than 30 fold) |
| < 5 | < 75 | 5 to 50 | Nc1ncc(NC(=O)C(=O)N(Cc2ccccn2)Cc2ccccc2Cl)c2[nH]ncc12 [Compound 142, N-(4-amino-1H-pyrazolo[4,3-c]pyridin-7-yl)-N′-[(2-chlorophenyl)methyl]-N′-(2-pyridylmethyl)oxamide] | < 100 | B (IC50 ratio greater than or equal to 15 fold but lower than 30 fold) |
| < 5 | > 125 | > 50 | CC[C@@H](C)N(Cc1ccccc1)C(=O)C(=O)Nc1cnc(N)c2cn[nH]c12 (stereo in doubt) [Compound 48, N-(4-amino-1H-pyrazolo[4,3-c]pyridin-7-yl)-N′-benzyl-N′-sec-butyl-oxamide] | 100 to 1000 | A (IC50 ratio greater than or equal to 30 fold) |
| < 5 | < 75 | 5 to 50 | Cc1cccnc1CN(Cc1ccc(F)cc1)C(=O)C(=O)Nc1cnc(N)c2cn[nH]c12 [Compound 119, N-(4-amino-1H-pyrazolo[4,3-c]pyridin-7-yl)-N′-[(4-fluorophenyl)methyl]-N′-[(3-methyl-2-pyridyl)methyl]oxamide] | < 100 | A (IC50 ratio greater than or equal to 30 fold) |
| < 5 | < 75 | 5 to 50 | CC(C)C(C)N(Cc1ccc(C(F)(F)F)cn1)C(=O)C(=O)Nc1cnc(N)c2cn[nH]c12 (stereo not drawn) [Compound 18, N-(4-amino-1H-pyrazolo[4,3-c]pyridin-7-yl)-N′-(1,2-dimethylpropyl)-N′-[[5-(trifluoromethyl)-2-pyridyl]methyl]oxamide] | < 100 | C (IC50 ratio of less than 15 fold) |
| < 5 | < 75 | > 50 | CC[C@@H](C)CN(Cc1ccccn1)C(=O)C(=O)Nc1cnc(N)c2cn[nH]c12 [Compound 115, (R)—N^1-(4-amino-1H-pyrazolo[4,3-c]pyridin-7-yl)-N^2-(2-methylbutyl)-N^2-(pyridin-2-ylmethyl)oxalamide] | < 100 | A (IC50 ratio greater than or equal to 30 fold) |
| < 5 | < 75 | > 50 | CN(Cc1c(F)cc(C(F)(F)F)cc1F)C(=O)C(=O)Nc1cnc(N)c2cn[nH]c12 [Compound 195, N-(4-Amino-1H-pyrazolo[4,3-c]pyridin-7-yl)-N′—[[2,6-difluoro-4-(trifluoromethyl)phenyl]methyl]-N′-methyl-oxamide] | < 100 | A (IC50 ratio greater than or equal to 30 fold) |
| < 5 | < 75 | 5 to 50 | Nc1ncc(NC(=O)C(=O)N(Cc2ccccc2)Cc2cccc(C(F)(F)F)n2)c2[nH]ncc12 [Compound 55, N-(4-amino-1H-pyrazolo[4,3-c]pyridin-7-yl)-N′-benzyl-N′-[[6-(trifluoromethyl)-2-pyridyl]methyl]oxamide] | < 100 | B (IC50 ratio greater than or equal to 15 fold but lower than 30 fold) |
| < 5 | < 75 | 5 to 50 | CCN(C(=O)C(=O)Nc1cnc(N)c2cn[nH]c12)[C@H](C)c1ccc(C(F)(F)C(F)(F)F)cc1F [Compound 103, N-(4-Amino-1H-pyrazolo[4,3-c]pyridin-7-yl)-N′-ethyl-N′—[(1R)-1-[2-fluoro-4-(1,1,2,2,2-pentafluoroethyl)phenyl]ethyl]oxamide] | < 100 | C (IC50 ratio of less than 15 fold) |
